Among the data in the RNAGym collection of RNA variant scans (doi:10.7554/elife.90254) are self-cleavage values, retold here.

To fix the notation:
B1: LINE1-full (parent)
chain: UACGUAGGUGGUUUUCCCCUGAUAGUGCUAAGGGGGCCUGGAAGUUUGGACUGGGCAGAGCUCAACACAGCGUGGCAAAGUGGCUGUGGCUAGACUGCCUCUCUGGAUUCCUCGUCACUCAGCAGGGCAUCUCUGAGAGAAAUGCC

Read counts are not given, so values of variants with three or more changes are uncertain.

In this series the parent is B1. The series is described as follows: self-cleavage, relative activity (ratio to wild type); higher = more cleavage; in vitro, sequencing; the parent is a self-cleaving ribozyme.
Take C18A G36C U115G: the self-cleavage was 1.02. The result for U15C U100C C146G reads 0.68. Regarding U15C U62C U134C, the self-cleavage was 0.15. The result for U15C U23A A24G U46A C66U U109A reads 0.15; that for C18U C90U U134C, 0.05; that for U15C U112A C123U, 1.5. With U15G U26G U100C the figure was 0; with U15G A107U A129G, 1.12; with U15C U39C A129G, 1.87.

As for C18A A42G U47A C66A U102C U109C A136G, the self-cleavage came out at 0.03. Take C18U A78G C90G A136G: the self-cleavage was 0.07. Turning to C16U G35U U62A, the self-cleavage turned out to be 0.03.

In the case of U15C U52A A77C G137U, the self-cleavage turned out to be 1.19.

On to C18U C61U A65G A129G, for which the self-cleavage amounted to 0.04. The result for C16U G97A G105A G114A reads 0.14; that for U15C U96C G126A, 0.27; that for C19A U102G C120U C128A A142G, 0.85. With C19A A77G U85C the figure was 0.17; with U15C U104C A142G, 1.71; with C17A U46C A142G, 0.71. The result for U15C U20C U26C A57U U62A U73C A121U reads 0; that for C16A U96A C120U C128U, 0.09; that for C19A A64U A77U U87C A138G, 0.05. Consider C17A A67G U108C U132C, for which the self-cleavage stood at 0.88.

For the variant C17A G21A U52A U115C A129G, the self-cleavage amounted to 1.38. With C16U A77G U87A A129U the figure was 0.06. The result for C17U G58U A124G reads 0.02; that for U15C U47A A141G, 1.42. With U15C U108C G125A the figure was 2.12. Take C17A U85C U96A A117G: the self-cleavage came to 0.23. The result for C17A A79G G114A reads 1.02.

Consider U15G U112A U143C, for which the self-cleavage is 0.77.

In the case of C16A U29C A77U, the self-cleavage came to 0.91. Consider C19G C84A U143A, for which the self-cleavage was determined as 0.19. The result for U15C U87C U104A A141G reads 0.63; that for U15G G72A U73C, 0.62; that for U15C U20A U96A C103U U109C A142G, 0.06. For the variant U15C U45C U112A, the self-cleavage was 1.15.

In the case of U15C U47C G74A U115A, the self-cleavage came out at 1.59. With C19A A129G A142G the figure was 0.8; with U15C U112A A136G, 1.72; with U15C U102C U119C, 0.92. The result for U15G A64U C66U A94G reads 0.23; that for U15C U81C A141C, 2.04; that for U15C U45C U143C, 0.71. The result for C19A U87C A121G A138G reads 0.16. Take U15C U47C G74U: the self-cleavage amounted to 1.15. With U15G A57G A65G U104C the figure was 0.92; with C17A U52A A107G, 1.08. For the variant C17U A42G U112C, the self-cleavage is 1.05.

U15C U62A A92G A124U: the self-cleavage was 0.07. Consider U15C U29C U112C, for which the self-cleavage amounted to 0.2.

Turning to U15C U104G U108C U130A, the self-cleavage was 0.92. The result for U15C U62C U104A reads 0.1; that for U15C U26C U112A, 1.76.

As to U15C U47C U85C G125U, the self-cleavage is 0.57.

U15C U26C G35U A59U A78U A129G: the self-cleavage worked out at 1.08. For U15C U100A A124G, the self-cleavage amounted to 1.09. U15C U81C U112C U143A: the self-cleavage was determined as 0.68.

C16U G35A G36C A136G: the self-cleavage came to 1.36. The result for U15C U20C U39C G126A reads 1.21; that for U15C U23C A50G, 1.31.

Turning to C16A U119C G135A, the self-cleavage came to 0.81. For U15C U26A U112C U130C, the self-cleavage is 1.31.

Consider U15C U46C A69G G125U, for which the self-cleavage was found to be 0.85.

For C17U C18U U26C A30U A78G A140G A142G, the self-cleavage was determined as 0.35. With C17A U45C A64G the figure was 0.14; with U15C U29C U52A U91A, 0.83. Turning to C17A A92G A129G, the self-cleavage was 0. U15C U26A C113A A124G: the self-cleavage stood at 0.85.

For the variant U15C U46A U81A U96C, the self-cleavage stood at 0.12. With U15C U29C A121G A141G the figure was 0.54; with C16U U29C A142G, 1.5. The result for U15C U87A A136G reads 0.06; that for C18U G72A A129U, 0.71; that for U15C U47C U62C U143A, 0.53.

Take U15C U26C G34U A64G C66U A141G: the self-cleavage is 0.04.

Turning to U15C U109C A140U, the self-cleavage amounted to 1.36. As for C17U A59G U85C U132A, the self-cleavage amounted to 0. Turning to U15C U23C A67U U96A, the self-cleavage was 0.06. The result for C16U U20C A42G A43G U102A A140G U143C reads 1.31; that for C18U U52A U73A, 1.29; that for U15C U62A A117G A121G, 0. The result for C16U U45A A94G A136G reads 0.34; that for C18U A65G U108C, 0. The result for C16U G35A G74U G105A C120U reads 1.5; that for C19A A138G U143A, 1.28; that for C17A U23A A50G A121U A136U, 1.53. For the variant U15C U20C A121U, the self-cleavage was 1.79. On to U15C U47A A50G A92G C95A, for which the self-cleavage turned out to be 0.04.

For U15C U52A A77G, the self-cleavage is 2.43.

For C19A A65G G88A U102C, the self-cleavage stood at 0.05. The result for U15G U26A A50U U62A U100C A129C A142G reads 0. U15C U26C A64C U109C: the self-cleavage was found to be 0.36. With C16U U62C U85A the figure was 0.02; with C19A A50G A94U U115C A136U, 0.41. The result for U15C U26C U46A U104C A141G reads 2.76. Turning to U15C U26C A69U, the self-cleavage is 0.19.

In the case of U15C U73C A140G, the self-cleavage was 1.92. With U15C U46A A50U the figure was 0.76; with C18U A42U A59G A94G, 0.21; with U15C U39A A65G U85C C90A A136G, 0.09. For U15C U46C A117U A142G, the self-cleavage stood at 1.98. On to U15C U46C U130C, for which the self-cleavage came out at 1.12. The result for C17U U108C U119C A138U reads 2.14. For the variant C17U U45C U47C, the self-cleavage came to 1.02. As for C16U U20C U132C A142U, the self-cleavage amounted to 0.98. Turning to C16U G55A U87A A107G, the self-cleavage came to 0.04.

For C18A A43G A67G U85A, the self-cleavage is 0.04. With C16U U47A U130C the figure was 1.84; with U15C U20C C116A A141G, 1.45; with C17U U26A C120U, 1.21.

Regarding U15C U23C A30U G34A U62C G72C G122A, the self-cleavage turned out to be 0.04. Take U15C U52A U73A G88A U96C U112C U132A: the self-cleavage was 0. The result for U15C U104A U109C G114A reads 0.8; that for U15C U20C U62C, 0; that for U15C U45G C98G U119C, 0.31. The result for U15C U26C U112A A142U reads 1.47. With C18A A79G U115C the figure was 1.26; with C18U U23C U81A, 1.28; with U15C U20G U132C, 1.31. As for U15G U20C A117G A141C, the self-cleavage came to 1.31.

Regarding C17U A22G U23C A67G A140U, the self-cleavage turned out to be 1.75. With C18U U26A G58A G72U the figure was 0.06. With U15C U26A U91A, the self-cleavage came to 0.71. As for U15C U46A A64G U73C C123U A142G, the self-cleavage turned out to be 0.36. With C18U A107G U112C A141G the figure was 2.3; with U15C U26A U62C U73A, 0.06; with C19U A24G G83A A124U, 0.71. For U15C U62A U115C, the self-cleavage is 0. For the variant U15C U39C U104A, the self-cleavage was 0.71. On to U15C U29A A94G, for which the self-cleavage was found to be 0. The result for C17U A67C A77U reads 0.25; that for U15C U47C U96C, 0; that for U15G G53A A136G, 1.38. The result for U15C U47C C51A reads 1.27; that for C19A A50G U81A, 0.93; that for C17A U81C U100C A129U, 1.84. With U15C U81C A107U A124G A138G the figure was 2.3; with U15C U20C G40A U87C U104C U112G, 0; with C18A A43G C101U, 0.54.

Turning to U15C U104C A117U, the self-cleavage was 0.79. The result for U15C U62C A64G U87G A124U reads 0; that for U15C U47A U115C G144A, 1.59. In the case of U15C U26A A42G, the self-cleavage is 0.99. Consider C16U U62C U119A, for which the self-cleavage came out at 0.03. C18U U23C U39C A57U: the self-cleavage is 0.2. The result for C16A U100C G144A reads 0.43; that for C19G G32C A138G, 1.7; that for C16A U45A A57G A59G C90U U100A, 0.14.

In the case of U15C U45C U96C, the self-cleavage stood at 0.7. Consider U15C U73A U102C U132C A141G, for which the self-cleavage worked out at 1.49. With U15G U87A U143A the figure was 0.24; with U15C U46C U81C, 1.58; with C17U U52C U62A U104A, 0.1. Take C16U A67G A121C: the self-cleavage was 0.82. U15C U62A A79G A94U U104A: the self-cleavage was 0. Take U15C U39A C56U A138G: the self-cleavage was determined as 0.17. On to U15C U62C U115A C120U, for which the self-cleavage was determined as 0.13.

Consider U15C U73A U119C U132C U134A A142G, for which the self-cleavage worked out at 0.42.

As to U15C U47G U52A, the self-cleavage was 1.34. With C16U A94U G114A A140G the figure was 0.06; with C16A A129U A142G, 1.12. Regarding U15C U91C A140G, the self-cleavage was 0.2. With U15G A77C C120U the figure was 0.67; with U15C U73G U100C, 1.23. As for C16U G25A U102A U104C, the self-cleavage amounted to 1.23.
